Reference: patent US8841342B2, “Carrier” (Vital Health Sciences Pty. Ltd., priority 2002, dated 2014)

Experiments:
[1] = test system: Conscious Sprague Dawley rats; assay: Atropine intravenous studies, heart rate and mean arterial pressure in conscious rats; type: in vivo; settings: for effect on mean arterial pressure (MAP) / duration of HR increase after injection / effect on heart rate (HR): 2 mg/kg IV; for duration of HR increase after injection / effect on heart rate (HR): naive rats; for effect on heart rate (HR): P<0.05
Procedure: Saline was given to all animals (n=7) prior to administration of either atropine formulation. Results are set out in FIGS. 5 and 6. • P<0.05 for first 60 min after administration versus pre-drug baseline, for atropine sulfate given to naive rats. • P<0.05 for first 30 min after administration versus pre-drug baseline, for atropine sulfate given to rats treated 24 hours previously with atropine phosphate. • P<0.05 for first 30 min after administration versus pre-drug baseline, for atropine phosphate given to naive rats. […] This effect lasted for approximately 30 min after injection. • Atropine sulfate was also given (on a subsequent day) to 3 out of 4 rats that had previously received (i.e. after) atropine phosphate. […] Transdermal Patch Studies

[2] = test system: Conscious Sprague Dawley rats; type: in vivo; settings: topical administration
Procedure: Concious Sprague Dawley rats also received atropine sulphate 2 mg/kg by intravenous administration. Results are set out in FIGS. 7 and 8. • P<0.01 for 6 hours after atropine sulfate administration versus pre-drug baseline (1-way RM ANOVA). • P<0.01 for atropine sulfate effect versus vehicle (2-way RM ANOVA). • P<0.01 for 5 min after atropine phosphate administration versus pre-drug baseline (1-way RM ANOVA). • ^+P<0.05 for atropine phosphate treatment/time interaction versus vehicle (2-way RM ANOVA). […] This effect was significant versus its own pre-drug baseline and IV administered atropine sulphate (1-way ANOVA with repeated measures, P<0.01), as well as against the vehicle-treated group (2-way ANOVA with repeated measures, P<0.01). […] This effect was significant versus its own pre-drug baseline, as well as against the vehicle-treated group (2-way ANOVA with repeated measures, treatment/time interaction, P<0.01). […] Conclusion

| Compound | effect on mean arterial pressure (MAP) [1] | time course of increased HR ([1]; 2 mg/kg IV on a subsequent day to rats previously given atropine phosphate) | duration of HR increase after injection [1] | effect on heart rate (HR) [1] | activity compared with atropine ([1]; IV administration) | effectiveness compared with atropine [2] |
| --- | --- | --- | --- | --- | --- | --- |
| CN1[C@@H]2CC[C@H]1C[C@@H](OC(=O)C(CO)c1ccccc1)C2 (stereo partly drawn) [Atropine sulfate, atropine sulphate] | not MAP | very similar time course of increased HR | approximately 60 min | significant increase in HR |  |  |
| CN1[C@@H]2CC[C@H]1CC(OC(=O)C(CO)c1ccccc1)C2.O=P(O)(O)O (stereo partly drawn) [Atropine phosphate, atropine phosphate] | not MAP |  | approximately 30 min | significant increase in HR | similarly active to atropine | less effective |

Where a name gives a salt, the structure may show the parent alone.
